# According to article PMC6471242, “Dereplication by High-Performance Liquid Chromatography (HPLC) with Quadrupole-Time-of-Flight Mass Spectroscopy (qTOF-MS) and Antiviral Activities of Phlorotannins from Ecklonia cava” (Marine Drugs, 2019):
# System: H1N1 A/PR/8/34 virus
# Test: Cytopathic effect (CPE) inhibition assay in MDCK cells, H1N1
# Assay type: cell-based
# Settings: Influenza A virus, 72 h, three days of incubation, mean ± SD, read-out: EC50 (effective concentration)
row,Compound,EC50
1,"NC(=O)c1ncn([C@@H]2O[C@H](CO)[C@@H](O)[C@H]2O)n1 [Ribavirin, ribavirin, reference compound]",4.29 µM
2,"Oc1cc(O)cc(Oc2c(O)cc(O)c3c2Oc2c(O)cc4oc5c(Oc6cc(O)cc(O)c6)c(O)cc(O)c5c4c2O3)c1 [Compound 12, Phlorofucofuroeckol A]",13.5 ± 1.93 µM
3,"Oc1cc(O)c2c(c1)Oc1c(O)cc(O)cc1O2 [Compound 13, Dibenzo[1,4]dioxine-2,4,7,9-tetraol]",23.9 µM
4,"Oc1cc(O)c2oc3cc(O)c4oc5cc(O)cc(O)c5oc4c3oc2c1 [Compound 14, Dioxinodehydroeckol]",23.4 µM
5,"Oc1cc(O)cc(Oc2c(O)cc(O)c3c2Oc2c(O)cc(Oc4c(O)cc(Oc5c(O)cc(O)c6c5Oc5c(O)cc(O)cc5O6)cc4O)cc2O3)c1 [Compound 11, Dieckol]",17.3 µM
